# This is one part of the list. At the low end of the ranking the order means little.
# Target: T1, GST-Rok (full length) (UniProt O34857)
# T1 sequence: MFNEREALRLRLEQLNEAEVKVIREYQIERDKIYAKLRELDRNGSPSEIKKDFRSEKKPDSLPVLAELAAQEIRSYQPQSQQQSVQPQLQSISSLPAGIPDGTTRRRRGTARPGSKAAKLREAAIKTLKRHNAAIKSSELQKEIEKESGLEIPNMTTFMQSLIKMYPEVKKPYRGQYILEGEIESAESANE
# Experiment: protein binding microarray;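 note: rank score from −0.5 (least bound) to 0.5 (best bound)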
# Settings: Rok is a gene silencer of Bacillus subtilis; high values mean tight binding; most listed sequences are background and not binding sites; double strand, one strand shown
row,Sequence,binding signal
1,AGTACGGG,-0.14 E-score
2,CGCCGTCA,-0.191 E-score
3,CCTAGGCC,-0.185 E-score
4,GTTGAGTA,0.0513 E-score
5,ACCTTGTG,-0.104 E-score
6,CCACAGGA,0.0328 E-score
7,GCGACGGA,-0.218 E-score
8,CCAAGCTA,0.16 E-score
9,ATAGGCCG,-0.147 E-score
10,AGGGTTTG,-0.158 E-score
11,ACCTTAAG,0.0261 E-score
12,CCGTTCCA,-0.0207 E-score
13,ACGCTCCT,-0.000812 E-score
14,ACATCAGA,0.0945 E-score
15,CTGATCAA,-0.12 E-score
16,ATTTTGCG,0.127 E-score
17,AGTTTACA,0.115 E-score
18,CCTAGTTC,0.0853 E-score
19,CTAGGTCA,-0.0595 E-score
20,TACGACCA,-0.0634 E-score
21,AGATAAGC,0.122 E-score
22,GCCTCAAA,-0.089 E-score
23,CTATGATA,0.172 E-score
24,GTATTATA,0.35 E-score
25,ACAATCGC,-0.0583 E-score

row,Sequence,binding signal
1,GGACATCC,-0.168 E-score
2,AAAGAGAA,-0.144 E-score
3,ACCACCTC,-0.0897 E-score
4,AACAGTGT,0.116 E-score
5,CAAAGCCC,-0.284 E-score
6,AGCGCACG,-0.149 E-score
7,AAAGGACC,-0.284 E-score
8,CAAGGCCG,-0.303 E-score
9,GCCTTGCA,-0.276 E-score
10,CCAGGCAG,-0.238 E-score
11,ACCGAGGT,0.0218 E-score
12,CCTTCTTA,0.0503 E-score
13,AGGAACAC,-0.213 E-score
14,CACACTGA,-0.128 E-score
15,ACATTGGG,0.0748 E-score
16,ACTTGTGG,-0.084 E-score
17,TGATCACA,-0.0801 E-score
18,GCAGAATA,0.151 E-score
19,ACCTAACA,0.207 E-score
20,ACTACACG,0.301 E-score
21,AGGTTCCG,-0.205 E-score
22,ACTCAGAC,-0.0928 E-score
23,GTAGACGA,0.101 E-score
24,ATTGGCCC,-0.208 E-score
25,CTAAACAA,-0.161 E-score

row,Sequence,binding signal
1,AAACTCAG,0.0227 E-score
2,CTGAACGC,-0.181 E-score
3,AGGCATGA,-0.0258 E-score
4,GAATGTAA,0.21 E-score
5,CTACGGAA,0.156 E-score
6,TAATTTCA,0.273 E-score
7,CAAGGTCC,-0.251 E-score
8,CCTTGGCA,-0.21 E-score
9,CTGCACTC,-0.166 E-score
10,CACGGCAA,0.154 E-score
11,CATCGACA,0.0503 E-score
12,AGGGTGAG,-0.19 E-score
13,CTAGACAC,0.0291 E-score
14,CTAAACTA,0.336 E-score
15,ACTGAGGG,-0.231 E-score
16,CTGTTCCC,-0.158 E-score
17,GCAAGTGA,0.0069 E-score
18,AAGTTCGC,0.139 E-score
19,AGCGATTC,-0.0838 E-score
20,AATAGGCG,-0.147 E-score
21,CACCATTA,0.0427 E-score
22,CCATAGGC,-0.214 E-score
23,GTATGAAA,0.127 E-score
24,CCGGACAA,-0.212 E-score
25,AACCTATG,0.00792 E-score

row,Sequence,binding signal
1,AAAGATGT,-0.00554 E-score
2,AAAAAACA,0.109 E-score
3,AGTTTCAA,0.0274 E-score
4,GAAACGCC,-0.216 E-score
5,ATATTTAA,0.387 E-score
6,CAGCGGTC,-0.296 E-score
7,GACCTCCC,-0.366 E-score
8,GCTAACAC,-0.0118 E-score
9,GAGCACAA,-0.121 E-score
10,AGATGGGG,-0.161 E-score
11,AAGTCTGA,-0.121 E-score
12,AATTAACG,0.0615 E-score
13,GTCTGCTA,0.0243 E-score
14,CAGCGCAA,0.0886 E-score
15,AGGGGCAA,-0.338 E-score
16,CGGAGGAC,-0.293 E-score
17,GAGAGGCC,-0.345 E-score
18,ATGGTGAA,0.136 E-score
19,ATTCCCAA,-0.059 E-score
20,CGAATTCC,-0.0872 E-score
21,CATGAGTA,0.253 E-score
22,CGTTATCC,-0.111 E-score
23,CCTATACG,-0.0834 E-score
24,TATGCCGA,-0.13 E-score
25,CGTGGGAG,-0.291 E-score

row,Sequence,binding signal
1,GTGCAAAC,-0.0482 E-score
2,CAAGACAC,-0.281 E-score
3,AGGTGTTC,-0.0893 E-score
4,CCGCCGTA,-0.238 E-score
5,AAAATCGG,-0.106 E-score
6,CTATGTGA,0.103 E-score
7,ATCATCTC,-0.0777 E-score
8,ATGAGCGA,-0.0103 E-score
9,TGGGGTAA,-0.0712 E-score
10,CATGCGCC,-0.332 E-score
11,AGTACCGG,0.103 E-score
12,GATCTCAC,-0.0224 E-score
13,CGTAGGCC,-0.17 E-score
14,CTCGAATA,0.185 E-score
15,GGGGTGTA,-0.097 E-score
16,CAAGTGGC,0.00246 E-score
17,CGCGTAAG,-0.0783 E-score
18,GCTCCTTA,-0.176 E-score
19,CATTGTCC,-0.183 E-score
20,CAGCCAGC,-0.245 E-score
21,CCCTCGAG,-0.22 E-score
22,ATTAAACA,-0.0504 E-score
23,CATACCGA,0.0564 E-score
24,CCTCGCCA,-0.301 E-score
25,ACTACCCT,0.133 E-score

row,Sequence,binding signal
1,AACCCATA,0.207 E-score
2,CCTCCAAA,-0.168 E-score
3,CCTGACTA,-0.0238 E-score
4,ATGCTGGC,-0.00906 E-score
5,TCACATGA,0.0464 E-score
6,GGATCTCA,-0.0769 E-score
7,AGTAATTG,0.29 E-score
8,CGATAGTA,0.384 E-score
9,AAGAAGAA,-0.237 E-score
10,ACACTGGT,-0.0469 E-score
11,TCACTCGA,-0.0802 E-score
12,AGGGACGA,-0.238 E-score
13,ACTGCAAA,-0.0118 E-score
14,CATCTGAG,-0.0222 E-score
15,ACAGGACT,-0.175 E-score
16,AACCGCTA,0.0839 E-score
17,GCGGGTCA,-0.239 E-score
18,CCGATTAC,-0.0661 E-score
19,ACCGTGAA,-0.000381 E-score
20,GGGACACA,-0.236 E-score
21,ATGCGTGC,-0.243 E-score
22,ACGGGGCC,-0.148 E-score
23,AAATGGGT,0.263 E-score
24,AATAGTAC,0.302 E-score
25,CCCTAACG,-0.274 E-score

row,Sequence,binding signal
1,GCGCACGA,-0.168 E-score
2,CCGTTTCC,-0.204 E-score
3,AGTGGTCA,-0.0224 E-score
4,CCCGATTA,-0.0137 E-score
5,CGGGATAA,0.0383 E-score
6,ATGAATCC,0.0418 E-score
7,ATGTTCTC,0.0524 E-score
8,AACTAGCT,0.317 E-score
9,ACTCCCAT,-0.17 E-score
10,CATGTCGA,0.135 E-score
11,GATCATGA,0.0532 E-score
12,AACATTGG,0.058 E-score
13,ACCGCCGT,-0.0488 E-score
14,GCAATTCA,0.00634 E-score
15,AGCGGAGG,-0.254 E-score
16,CCTTGACC,-0.0779 E-score
17,GCTGATAC,-0.0816 E-score
18,CCACAAGA,-0.0615 E-score
19,GCACTTCC,-0.081 E-score
20,ACGGGTGG,-0.0585 E-score
21,CGGCAAAC,0.138 E-score
22,TATAATAA,0.33 E-score
